In patent publication EP1632243A1 (priority 2003, dated 2004):
Like-named read-outs stand apart in the source and are kept apart here. Residues, ends and D or L forms follow the SMILES beside them.

What was measured:
293 cells = tested on: 293 cells
Protocol: The 293 human embryonic kidney cell line (from the Cell Bank of the Chinese Academy of Sciences) was seeded on a 96-well plate with a concentration of 400,000/ml and incubated at 37°C, under 5% CO2 for 24 hours. The test drugs were then added. […] The positive control drug ganciclovir was in a serial dilution of 6000µg/ml to 11.7µg/ml. Cells at each concentration were seeded in 3 wells, 100µl per well, and normal cells were setup as controls. Cells were incubated at 37°C and under 5% CO2 for 6 days. A cytopathic effect (CPE) was observed under an inverted microscope everyday. Morphological change of cells under 25% was defined "+", 26%-50% was defined "++", 51%-75% was defined "+++", and 76%-100% was defined "++++". Toxic dose 50 (TD50) and toxic dose 0 (TD0) of the drugs were calculated by the Reed-Muench method.

HIV = tested on: HIV
Protocol: Specifically, MT-4 cells were seeded on a 96-well plate with concentrations of 400,000/ml and incubated at 37°C and under 5% CO2 for 24 hours. The medium was discarded when a cell monolayer was formed. Then a solution containing HIV at 100 TCID50 was added, normal cells and virus infected cells were setup as controls. Cells were incubated at 37°C and under 5% CO2 for 2 hours. […] The drugs were 1:2 diluted into 8 concentrations (i.e. 12000ng/ml~24ng/ml). Diluted drugs were added into wells, 3 wells per concentration. Cells were incubated at 37°C and under 5% CO2 for 5-7 days prior to analyzing viral protein P24 assay. The experiment was performed in triplicate.

[1] = 293 cells, 6 days, CPE method, mean of triplicate experiments

## AP-6: high-affinity peptide antagonist targeting HAb18G/CD147, amino acid sequence SEQ ID NO:8 (YPFHHKHWHRPN)
293 cells
  toxic dose 0 (TD0): > 1000 ± 0 µg/mL
  toxic dose 50 (TD50): > 1000 ± 0 µg/mL
HIV
  inhibition of HIV-1: not capable of inhibiting HIV-1

## CC(C)C[C@H](NC(=O)[C@H](CCCCN)NC(=O)[C@@H](N)Cc1ccc(O)cc1)C(=O)N1CCC[C@H]1C(=O)NCC(=O)N[C@@H](Cc1c[nH]cn1)C(=O)N[C@@H](Cc1c[nH]cn1)C(=O)N[C@@H](Cc1c[nH]cn1)C(=O)N[C@@H](Cc1c[nH]cn1)C(=O)N[C@@H](Cc1ccc(O)cc1)C(=O)N[C@@H](CCCNC(=N)N)C(=O)N1CCC[C@H]1C(=O)O [AP-9] (H-YKLPGHHHHYRP-OH; N-terminus and C-terminus assumed)
293 cells; [1]
  toxic dose 0 (TD0): > 1000 ± 0 µg/mL
  toxic dose 50 (TD50): > 1000 ± 0 µg/mL
HIV; MT-4 cell cultures, viral P24 assay, result in words
  inhibition of HIV-1: capable of inhibiting HIV-1

## AP-1: high-affinity peptide antagonist targeting HAb18G/CD147, amino acid sequence SEQ ID NO:3 (MTHDPVISLPTT)
293 cells
  toxic dose 0 (TD0): > 1000 ± 0 µg/mL
  toxic dose 50 (TD50): > 1000 ± 0 µg/mL
HIV
  inhibition of HIV-1: not capable of inhibiting HIV-1
